Results taken from the supplement of paper PMC4967469.
By IC50 is meant the dose at which the fit gives 50% viability; a limit (>, <) means that the fit lies beyond the doses tested. The AUC spans the tested range (256-fold, ending at the top dose) of the same fit; it is 1 without any effect and falls as sensitivity rises. A top dose marked as inferred comes from the curve model; the source does not state it.

Columns and labels:
PD-173074 = compound: CCN(CC)CCCCNc1ncc2cc(-c3cc(OC)cc(OC)c3)c(NC(=O)NC(C)(C)C)nc2n1 [PD-173074]; test: Viability of human cancer cell lines after 72 h of drug (GDSC screen); settings: top dose 2 µM; top dose inferred
Procedure: (§1)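 Human cancer cell lines in 384-well plates, medium with 10% serum, drug for 72 h over a 256-fold dose range (nine 2-fold or five 4-fold steps up to the top dose). Adherent lines were fixed and stained with the nucleic acid dye Syto60, suspension lines read with resazurin; signal relative to control wells, capped at 0 and 100%. One two-parameter sigmoid per drug and line, fitted in a mixed model over all curves with the slope shared within a line.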

SB590885 = compound: CN(C)CCOc1ccc(-c2nc(-c3ccncc3)c(-c3ccc4c(c3)CC/C4=N\O)[nH]2)cc1 [SB590885]; test: as above; settings: top dose 5 µM; top dose inferred
Procedure: as §1

Cell Line	AUC (PD-173074)	IC50 (PD-173074) [nM]	AUC (SB590885)	IC50 (SB590885) [nM]
OV-90 (ovary, adherent)	0.979	> 2000	0.736	1810
OVCA420 (ovary, adherent)	0.982	> 2000	0.982	> 5000
OVCA433 (ovary, adherent)	0.975	> 2000	0.985	> 5000
OVCAR-3 (ovary, adherent)	0.955	> 2000	0.966	> 5000
OVCAR-5 (ovary, adherent)	0.981	> 2000	0.911	> 5000
OVCAR-8 (ovary, adherent)	0.969	> 2000	0.988	> 5000
OVISE (ovary, adherent)	0.917	> 2000	0.864	> 5000
OVK-18 (ovary, adherent)	0.899	> 2000	0.983	> 5000
OVKATE (ovary, adherent)	0.974	> 2000	0.979	> 5000
OVMIU (ovary, adherent)	0.962	> 2000	0.944	> 5000
OVTOKO (ovary, adherent)	0.914	> 2000	0.93	> 5000
P12-ICHIKAWA (T-cell lymphoblastic leukaemia, suspension)	0.992	> 2000	0.976	> 5000
PA-1 (ovary, adherent)	0.992	> 2000	0.99	> 5000
PA-TU-8902 (pancreas, adherent)	0.98	> 2000	0.983	> 5000
PANC-02-03 (pancreas, adherent)	0.962	> 2000	0.976	> 5000
PANC-03-27 (pancreas, adherent)	0.989	> 2000	0.988	> 5000
PANC-04-03 (pancreas, adherent)	0.963	> 2000	0.952	> 5000
PANC-10-05 (pancreas, adherent)	0.972	> 2000	0.982	> 5000
PC-3 (prostate, adherent)	0.975	> 2000	0.964	> 5000
PC-3 [JPC-3] (lung adenocarcinoma, adherent)	0.981	> 2000	0.981	> 5000
PC-14 (lung adenocarcinoma, adherent)	0.99	> 2000	0.981	> 5000
PCI-4B (head and neck, adherent)	0.977	> 2000	0.948	> 5000
PCI-6A (head and neck, adherent)	0.969	> 2000	0.945	> 5000
PCI-15A (head and neck, adherent)	0.781	834	0.986	> 5000

Cell Line	AUC (PD-173074)	IC50 (PD-173074) [nM]	AUC (SB590885)	IC50 (SB590885) [nM]
PCI-30 (head and neck, adherent)	0.906	> 2000	0.97	> 5000
PE/CA-PJ15 (head and neck, adherent)	0.981	> 2000	0.981	> 5000
PEO1 (ovary, adherent)	0.987	> 2000	0.987	> 5000
PFSK-1 (medulloblastoma, adherent)	0.98	> 2000	0.982	> 5000
PL4 (pancreas, adherent)	0.987	> 2000	0.97	> 5000
PWR-1E (prostate, adherent)	0.927	> 2000	0.981	> 5000
QGP-1 (pancreas, adherent)	0.965	> 2000	0.928	> 5000
RCC-AB (kidney, adherent)	0.975	> 2000	0.981	> 5000
RCC-ER (kidney, adherent)	0.977	> 2000	0.986	> 5000
RCC-FG2 (kidney, adherent)	0.93	> 2000	0.982	> 5000
RCC-JF (kidney, adherent)	0.982	> 2000	0.983	> 5000
RCC-JW (kidney, adherent)	0.984	> 2000	0.986	> 5000
RCC-MF (kidney, adherent)	0.98	> 2000	0.953	> 5000
RCH-ACV (B-cell leukaemia, suspension)	0.943	> 2000	0.992	> 5000
RCM-1 (large intestine, adherent)	0.981	> 2000	0.954	> 5000
RERF-LC-KJ (lung adenocarcinoma, adherent)	0.982	> 2000	0.987	> 5000
RERF-LC-MS (lung adenocarcinoma, adherent)	0.987	> 2000	0.987	> 5000
RERF-LC-Sq1 (lung squamous cell carcinoma, adherent)	0.941	> 2000	0.979	> 5000
RH-18 (rhabdomyosarcoma, adherent)	0.885	> 2000	0.985	> 5000
RH-41 (rhabdomyosarcoma, adherent)	0.951	> 2000	0.991	> 5000
RKN (ovary, adherent)	0.932	> 2000	0.864	4780
RO82-W-1 (thyroid, adherent)	0.818	1550	0.983	> 5000
RPMI-2650 (head and neck, adherent)	0.959	> 2000	0.967	> 5000
RPMI-7951 (melanoma, adherent)	0.987	> 2000	0.984	> 5000
